# According to PubChem BioAssay AID504332 (National Center for Advancing Translational Sciences (NCATS), 2011):
# Screen size: about 350,000 compounds; about 31,000 (8.9%) were called active. The shares of active, inactive and inconclusive entries below differ from those in the screen. The call rests on the fitted dose curve; in most records, active means well fitted inhibition curve with a large enough effect; inconclusive means small, poorly fitted or top-dose-only effect; inactive means no such curve, though single readings can be large or run the other way. A potency beside an inconclusive call is a rough fit, not a confirmed value.
# Biological target: Histone-lysine N-methyltransferase EHMT2 (Homo sapiens) (UniProt Q96KQ7)
# Chain of UniProt Q96KQ7 (Q96KQ7 whole entry, looked up): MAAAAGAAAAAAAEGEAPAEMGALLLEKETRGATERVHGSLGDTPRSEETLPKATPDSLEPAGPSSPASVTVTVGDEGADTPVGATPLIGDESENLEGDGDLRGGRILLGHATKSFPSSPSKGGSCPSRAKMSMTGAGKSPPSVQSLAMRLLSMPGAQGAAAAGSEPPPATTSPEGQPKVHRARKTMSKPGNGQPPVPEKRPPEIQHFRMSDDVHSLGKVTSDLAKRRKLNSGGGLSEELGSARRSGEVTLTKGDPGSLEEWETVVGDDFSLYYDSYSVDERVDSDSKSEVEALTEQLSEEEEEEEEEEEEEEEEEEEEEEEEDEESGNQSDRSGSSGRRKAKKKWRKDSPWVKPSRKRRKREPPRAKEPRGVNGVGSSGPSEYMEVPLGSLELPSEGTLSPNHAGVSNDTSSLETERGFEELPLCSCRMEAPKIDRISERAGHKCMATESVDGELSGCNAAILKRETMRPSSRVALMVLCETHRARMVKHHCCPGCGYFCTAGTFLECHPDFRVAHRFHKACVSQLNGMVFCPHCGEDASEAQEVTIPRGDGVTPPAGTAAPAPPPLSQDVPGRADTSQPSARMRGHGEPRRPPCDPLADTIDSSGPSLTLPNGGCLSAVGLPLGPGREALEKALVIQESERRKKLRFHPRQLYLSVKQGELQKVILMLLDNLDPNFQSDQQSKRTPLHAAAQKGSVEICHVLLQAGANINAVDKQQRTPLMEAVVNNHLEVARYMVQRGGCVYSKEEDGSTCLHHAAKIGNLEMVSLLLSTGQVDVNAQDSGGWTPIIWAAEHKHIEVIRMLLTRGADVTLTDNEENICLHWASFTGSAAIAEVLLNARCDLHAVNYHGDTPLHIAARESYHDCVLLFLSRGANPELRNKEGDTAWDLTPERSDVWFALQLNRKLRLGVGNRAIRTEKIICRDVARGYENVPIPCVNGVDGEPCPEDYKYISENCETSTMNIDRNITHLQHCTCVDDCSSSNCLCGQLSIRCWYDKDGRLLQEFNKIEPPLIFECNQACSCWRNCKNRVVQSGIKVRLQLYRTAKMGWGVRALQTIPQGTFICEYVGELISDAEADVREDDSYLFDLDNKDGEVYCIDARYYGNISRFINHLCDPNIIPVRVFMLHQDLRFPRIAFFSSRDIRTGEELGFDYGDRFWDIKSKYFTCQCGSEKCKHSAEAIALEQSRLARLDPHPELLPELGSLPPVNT
# Assay: qHTS Assay for Inhibitors of Histone Lysine Methyltransferase G9a; further: nearly all actives have a fitted effect of over 75% in size
# Conditions: G9a H3K9 monomethylation, AlphaScreen, 2 h; activity, negative = inhibition: at 59 µM (top of the series) unless noted
# How it was run: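 Enzyme 20 nM + cpd, 15 min RT; add b-H3K9 pep 500 nM / SAM 20 uM; 2 h RT; anti-H3K9me1 Ab 0.5 ug/mL + SA donor / anti-rabbit acceptor beads 20 ug/mL each, 10 min; AlphaScreen read.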
# On the % scale 0 is the no-effect control and ±100 the full control effect; potency means the concentration at half of the fitted maximal effect; tags describe the fitted curve by direction and shape.
Structure (SMILES),Potency,"activity, negative = inhibition"
CN(C)c1ccc(/C=N/N(CCC#N)C2=NS(=O)(=O)c3ccccc32)cc1,"inconclusive: 89.1 µM [inhibitor, single point]",–
Cc1ccccc1NC(=O)CSc1nc2c(c(=O)n(C)c(=O)n2C)n1Cc1ccccc1F,–,inactive: -4.76%
Cc1cc(C(=O)OCC(=O)NC2CC2)c2ccccc2n1,"inconclusive: 3.16 µM [inhibitor, partial curve, poor fit]",–
NS(=O)(=O)c1ccc(CCNC(=O)COC(=O)/C=C/c2ccccc2Cl)cc1,"inconclusive: 1.58 µM [inhibitor, partial curve, poor fit]",–
Cc1ccc(C(=O)c2c(NC(=O)c3cccnc3)sc3c2CCCC3)cc1,"inconclusive: 20 µM [inhibitor, single point]",–
CC(C)CN(C(=O)CN1C(=O)C2CCCCC2C1=O)c1c(N)n(Cc2ccccc2)c(=O)[nH]c1=O (configuration not stated),"inconclusive: 39.8 µM [inhibitor, partial curve, poor fit]",–
Cc1ccc(Cn2nnnc2CN2CCC(NC(=O)C(C)(C)C)CC2)cc1,–,inactive: -4.03% [at 12.7 µM]
COc1ccc(OC)c(NC(=O)CSc2ncccn2)c1,"inconclusive: 17.8 µM [inhibitor, partial curve, poor fit]",–
CCOC(=O)C1CCN(C(=O)Cn2c(=O)oc3cc(S(=O)(=O)N4CCC(C)CC4)ccc32)CC1,–,inactive: 6%
CC(=O)N1CCc2c(sc3c2c(=O)n(CCc2ccccc2)c(=O)n3Cc2ccc(Cl)cc2)C1,"inconclusive: 11.2 µM [inhibitor, partial curve, poor fit]",–
COc1ccc(N2CCN(S(=O)(=O)c3ccc4c(c3)NC(=O)CC(=O)N4)CC2)cc1,"inconclusive: 56.2 µM [inhibitor, partial curve, poor fit]",–
COc1ccc(NS(=O)(=O)c2cccc(C(=O)NCC(c3ccco3)N3CCCC3)c2)cc1 (configuration not stated),"inconclusive: 50.1 µM [inhibitor, partial curve]",–
CC(C)COc1ccc(C(=O)Nc2ccc(N3CCOCC3)cc2N2CCOCC2)cc1,active: 10 µM,–
Cc1nnc2ccc(-c3ccc(NC(=O)c4ccc(Cl)nc4)cc3)nn12,active: 79.4 µM,–
CNS(=O)(=O)c1cccc(C(=O)OCC(=O)Nc2sc3c(c2C#N)CCCCC3)c1,"inconclusive: 44.7 µM [inhibitor, partial curve, poor fit]",–
O=C1N(Cc2cccnc2)C[C@@H]2C[C@@H](c3cccc(Oc4ccccc4)c3)N3CCC[C@@]123,active: 12.6 µM,–
CN(C)S(=O)(=O)c1cccc(NC(=S)NNC(=O)c2cc3ccccc3cc2O)c1,"inconclusive: 10 µM [inhibitor, single point]",–
